From publication PMC4336329 (PLoS ONE, 2015)
Among all 310,000 compounds or so, about 2,200 (0.71%) showed an effect of 50% or more. Effects have a minus sign here. Some of the results follow.

Biological target: human ether-à-go-go-related gene (hERG) potassium channel (human, UniProt Q12809)
Experiment: primary screen, population patch clamp on CHO cells stably expressing hERG

Chain of human ether-à-go-go-related gene (hERG) potassium channel (Q12809 whole entry, looked up): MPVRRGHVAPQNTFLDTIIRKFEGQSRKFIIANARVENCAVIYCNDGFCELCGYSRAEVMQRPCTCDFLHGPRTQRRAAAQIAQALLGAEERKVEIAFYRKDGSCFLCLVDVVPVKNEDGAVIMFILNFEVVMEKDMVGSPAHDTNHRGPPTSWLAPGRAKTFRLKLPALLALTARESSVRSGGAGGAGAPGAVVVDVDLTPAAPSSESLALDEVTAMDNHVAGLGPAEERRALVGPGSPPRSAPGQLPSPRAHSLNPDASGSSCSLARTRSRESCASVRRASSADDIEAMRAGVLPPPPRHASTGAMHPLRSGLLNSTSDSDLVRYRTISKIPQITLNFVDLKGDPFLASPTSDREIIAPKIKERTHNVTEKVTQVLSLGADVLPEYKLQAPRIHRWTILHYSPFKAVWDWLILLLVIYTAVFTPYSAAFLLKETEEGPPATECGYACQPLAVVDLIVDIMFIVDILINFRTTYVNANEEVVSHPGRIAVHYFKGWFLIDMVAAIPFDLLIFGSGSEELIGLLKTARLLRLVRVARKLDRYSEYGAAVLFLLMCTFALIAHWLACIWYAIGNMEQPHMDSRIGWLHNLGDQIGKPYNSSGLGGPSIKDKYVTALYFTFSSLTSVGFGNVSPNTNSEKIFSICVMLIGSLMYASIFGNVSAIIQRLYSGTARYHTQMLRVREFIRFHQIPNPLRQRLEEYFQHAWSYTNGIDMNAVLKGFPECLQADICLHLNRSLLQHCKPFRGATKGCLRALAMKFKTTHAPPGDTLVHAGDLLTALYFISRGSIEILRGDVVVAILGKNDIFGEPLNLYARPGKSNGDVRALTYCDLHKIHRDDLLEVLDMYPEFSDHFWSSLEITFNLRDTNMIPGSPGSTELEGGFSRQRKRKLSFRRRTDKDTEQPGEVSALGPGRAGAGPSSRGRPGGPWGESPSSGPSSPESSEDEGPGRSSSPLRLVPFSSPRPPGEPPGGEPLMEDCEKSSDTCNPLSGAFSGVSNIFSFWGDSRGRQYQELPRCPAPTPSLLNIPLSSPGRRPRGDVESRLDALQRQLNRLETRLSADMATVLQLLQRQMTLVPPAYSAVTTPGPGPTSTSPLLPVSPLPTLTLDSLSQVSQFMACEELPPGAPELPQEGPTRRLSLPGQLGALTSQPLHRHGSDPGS

Compound | hERG current change (%, negative = inhibition) at 1uM
O=C(CCN1C(=O)c2ccccc2S1(=O)=O)NCc1ccco1 | 8.38%
N#Cc1cccc(NC(=O)Cn2cnc(S(=O)(=O)N3CCOCC3)c2)c1 | 9.81%
CCCCN1Cc2cc(C(=O)c3cc(OC)ccc3O)cnc2NC1=O | 4.49%
COc1ccc(-c2c(-c3cccc(C)c3)oc3ccc(-c4ccc5c(c4)OCO5)cc23)cn1 | 2.93%
Cc1cc(NC(=O)CSc2nnc(-c3ccoc3C)o2)no1 | 8.59%
O=C(COc1ccc(Cl)cc1Cl)Nc1c(-c2cccs2)nc2ccccn12 | 14.7%
COCCN(C(=O)CCC(=O)Nc1cc(C)on1)C(C(=O)NC(C)(C)C)c1ccc(OC)cc1 (stereo not shown) | 7.5%
CC1=C(C(=O)OCCOC(C)C)C(c2cccnc2)C2=C(CCCC2=O)N1 (stereo not shown) | 16.4%
COC(=O)N/N=C\c1cccc(OC(=O)c2cccs2)c1 | 7.11%
O=C(c1cccs1)N1CCN=C1SCc1ccccc1F | 6.28%
O=C(CCN1CCCC1)c1cccs1 | 13%
COC(=O)c1c(SCC(=O)NC2CCCCC2)[nH]c2ccccc2c1=O | 8.82%
O=C(c1ccco1)N1CCN(c2ncnc3c2oc2ccccc23)CC1 | -18.1%
O=C1CCCc2c1[nH]c1ccc(CN3CCCCC3)cc21 | -1.95%
CNC(=O)COC(=O)c1ccc(NS(=O)(=O)c2ccc3c(c2)OCCO3)cc1 | 10.4%
COc1ccccc1C(=O)NCC(=O)NCCCN1CCOCC1 | 9.26%
COc1ccc(N(C(=O)CCl)C(C(=O)NC2CCCCC2)c2cccnc2)cc1 (stereo not shown) | 15.4%
COc1ccc(C(CNC(=O)/C=C/c2c(Cl)nc3ccccn23)N(C)C)cc1 (stereo not shown) | 9.35%
O=C(CSc1nnc(NC(=O)c2ccc(F)cc2)s1)NC1CCCC1 | 11.3%
COc1cc2c(cc1OC)C(c1ccc3c(c1)OCO3)C1=C(CC(C)(C)CC1=O)N2 (stereo not shown) | 2.28%
Cc1ccc(/C=C(/C#N)c2nc(CCN3C(=O)c4ccccc4C3=O)cs2)cc1 | 23.9%
Cc1ccccc1CNC(=O)c1ccccc1C | 14.4%

Compound | hERG current change (%, negative = inhibition) at 1uM
Cc1cccc(-n2nc3c(c2NC(=O)CCCl)CSC3)c1 | 9.01%
O=[N+]([O-])c1ccc(NC(=S)N2CCc3ccccc32)cc1 | 8.05%
Cc1[nH]c(C(=O)O)c(C)c1C(=O)OC(C)C | -1.89%
COC(=O)c1ccc(/C=N/N2CCN(Cc3ccccc3)CC2)cc1 | 9.24%
O=C(NCCSCc1ccccc1)c1cc(S(=O)(=O)N2CCOCC2)ccc1F | 5.76%
CC(C)CCNC(=O)[C@H](CC(C)C)NC(=O)[C@H]1O[C@@H]1C(=O)O | 29.2%
O=C(COc1ccccc1)N=C1SC2CS(=O)(=O)CC2N1c1ccc(F)cc1 (stereo not shown) | 13.1%
O=C(O)C(=O)O.O=C(c1ccncc1)N1CCN(C2CCCCC2)CC1 | 5.44%
CC(OC(=O)c1ccc(Br)o1)C(=O)Nc1ccc2c(c1)OCCO2 (stereo not shown) | 4.49%
O=S1(=O)CCC(NCC2CCCO2)C1 (stereo not shown) | 12.9%
CSc1ccccc1OCc1cc(C(=O)N2CCC(Oc3cccnc3)CC2)no1 | 4.42%
COc1ccc(S(=O)(=O)N(C)CC(=O)NCCC2=CCCCC2)cc1 | 18%
Cc1ccc(NS(=O)(=O)c2cccc3cccnc23)c(Cl)c1 | 13.3%
Cc1cccc(NC(=O)CSc2nc(N)c(NC(=O)c3cccs3)c(=O)[nH]2)c1C | 0.118%
COc1ccc(-c2cc(C(F)F)n3ncc(C(=O)NCCCN4CCCC4=O)c3n2)cc1 | -9.38%
CCCn1c(SCC(=O)Nc2ccccc2N2CCCCC2)nc2c1c(=O)n(C)c(=O)n2C | -6.7%
Cc1ccc(S(=O)(=O)N(C)CC(=O)Nc2ccncc2)cc1 | 6.17%
Cc1ccc(-c2c(C(=O)N3CCOCC3)oc(=O)c3ccccc23)cc1 | -1.75%
CC(=O)N/N=C(\C)c1ccc2c(c1)OCCO2 | 12.9%
COC(=O)CSc1nc(C2CC2)cc(C(F)(F)F)c1C#N | 8.84%
O=c1[nH]c(C2CCN(S(=O)(=O)c3ccccc3C(F)(F)F)CC2)nc2c1nnn2Cc1cccc(F)c1 | 11.6%
CCn1c(COc2ccccc2)nnc1SCC(=O)NC1CCCCC1 | 12%

Compound | hERG current change (%, negative = inhibition) at 1uM
O=S(=O)(NCc1ccco1)c1cccc(S(=O)(=O)N2CCOCC2)c1 | 0.6%
CSCC[C@H](NC(=O)N1CCn2c1nc1ccccc12)C(=O)NCc1ccc2c(c1)OCO2 | -5.71%
CCN(C(=O)C(C)OC(=O)CCCNC(=O)c1ccc(Cl)cc1)c1ccccc1 (stereo not shown) | 2.98%
COc1cc(/C=N/NC(=O)c2cc[n+]([O-])cc2)ccc1O | 14.4%
Cc1[nH]nc2c1C(c1ccc(OC(=O)c3ccco3)cc1)C(C#N)=C(N)O2 (stereo not shown) | 18.7%
Cc1cc(NS(=O)(=O)c2ccc(NC(=O)CCCOc3ccc(Cl)cc3)cc2)no1 | 14%
Br.CCOc1ccc(N=c2scc(-c3ccc(OC)cc3)n2CCO)cc1 | 8.9%
CC(=O)NNC(=O)c1cc2sccc2s1 | 8.59%
S=c1[nH]nc(-c2cccc(Cl)c2)n1/N=C/c1ccco1 | 10.3%
Cn1c(=O)c2cc3ccc(Cl)cc3nc2n(C)c1=O | 4.78%
COC(=O)c1ccccc1NC(=O)/C=C/C(=O)O | -0.611%
CC1Cc2ccccc2C(=O)N1 (stereo not shown) | 13.7%
COc1ccc(C(=O)O/N=C(/C)c2cccs2)cc1 | 18.8%
Cc1cc2c(OCC(O)CN3CCCCC3)cccc2[nH]1 (stereo not shown) | 17%
COc1ccc(C2NC(c3ccc(OC)cc3)C(C)C(=O)C2C)cc1 (stereo not shown) | 8.8%
Cc1cccn2c(=O)c(/C=C(\C#N)C(N)=O)c(N3CCCCCC3)nc12 | 8.25%
Cc1cc(C)c(S(=O)(=O)Nc2ccc(O)c(Sc3ncn[nH]3)c2)c(C)c1 | -3.56%
Cc1ccc(-c2ccc(/C=N/N3C(=O)C4C5C=CC(CC5)C4C3=O)o2)c([N+](=O)[O-])c1 (stereo not shown) | -0.364%
CC(OC(=O)Cc1coc2cc3c(cc12)CCC3)C(=O)NC(N)=O (stereo not shown) | 9.58%
O=C(COC(=O)c1ccc(O)cc1O)Nc1cccc2ccccc12 | -7.53%
N#Cc1ccccc1CN1C(=O)S/C(=C/c2cccn2-c2ccc(C(=O)O)cc2)C1=O | 3.63%
Cc1cc(/C=N/NC(=O)C(=O)NCc2ccccn2)c(C)n1-c1ccccc1 | -0.58%

Compound | hERG current change (%, negative = inhibition) at 1uM
NC(=O)CSc1nnc(Cn2c(=O)sc3ccccc32)n1-c1ccccc1 | 1.49%
Cc1ccc(NC(=O)C2CCCO2)cc1[N+](=O)[O-] (stereo not shown) | 3.24%
COc1ccc(Cc2nnc(SCc3nc4ccccc4c(=O)[nH]3)o2)cc1 | 15.5%
COc1ccc(OCC(O)Cn2c(=N)n(CCN3CCCCC3)c3ccccc32)cc1.Cl (stereo not shown) | -51.2%
Cc1ccc2c(c1)N(CC(=O)Nc1c(C)cccc1C)C(=O)c1cccnc1O2 | 20.1%
CC(=O)c1cccc(Nc2cc(C)nc3ccccc23)c1.Cl | -7.18%
CCSc1ccc2c(c1)N(CCCN1CCN(C)CC1)c1ccccc1S2.O=C(O)CC(O)C(=O)O | 3.21%
CCOC(=O)[C@@H]1[C@H]2COc3ccc(Br)cc3[C@@H]2N2C(=O)N(c3ccc(Cl)cc3)C(=O)[C@]12C | 5.97%
COc1ccc(C2C(C#N)=C(N)OC3=C2C(=O)CC(C)C3)c(OC)c1OC (stereo not shown) | 10%
COC(=O)c1ccc(N2CCN(c3ccccc3)CC2)nc1 | 10.6%
Clc1ccc(CN2CCN(/N=C/c3cccnc3)CC2)cc1 | 7.43%
O=C(O)c1ccc(S(=O)(=O)Nc2ccc(O)c(Sc3nc4ccccc4s3)c2)cc1 | 9.28%
COc1cc(C(=O)Nc2ccc([N+](=O)[O-])cn2)cc(OC)c1OC | 12%
CCOC(=O)C(C(=O)OCC)C(C(=O)OCC)N1CCOCC1 (stereo not shown) | 15.7%
COc1cccc(OCc2nc3c4cnn(-c5ccccc5)c4ncn3n2)c1 | 5.22%
COc1ccc(/[N+]([O-])=C/c2ccco2)cc1 | 13.1%
C=CCN(c1ccccc1)S(=O)(=O)c1ccc2[nH]cc(C(=O)NCCOC)c(=O)c2c1 | 9.96%
Cc1cccc(Cn2nc(-n3cccc3)c3c(C)cc(C)nc32)c1 | 11.5%
COc1ccc(CC(=O)N/N=C/C=C/c2cccc([N+](=O)[O-])c2)cc1OC | 15.6%
CCc1ccc(NC(=O)CNC(=O)[C@@H]2Cc3ccccc3CN2)cc1 | 1.35%
C/C(=N\NC(=O)COc1ccc(C)cc1C(C)C)c1cc2ccccc2o1 | 9.23%
CCC(C)NC(=O)CNC(=O)c1nn(-c2ccc(OC)cc2OC)c(=O)c2ccccc12 (stereo not shown) | 19.3%
